Test results as given in the supplement of paper PMC9446081.
About 220 (0.56%) of roughly 39,000 compounds showed activity. The list shows a part of the results.

What follows are compounds tested on Escherichia coli K-12 BW25113 (assay: relative growth (OD600 normalised to plate interquartile mean) (fraction); higher = less growth inhibition, active = 0.2 or less). Conditions: 50 µM; LB; incubation time: overnight (16-24 h).
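Also: static incubation at 37 °C against the wild-type strain, values averaged over two biological replicates.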

SMILES	relative growth
C[C@@H]1CCCCO[C@@H](CN(C)CC2CC2)[C@H](C)CN([C@@H](C)CO)C(=O)c2cc(NC(=O)Nc3ccc(C(F)(F)F)cc3)ccc2O1	inactive: 0.974
Cc1noc(C)c1NC(=O)Nc1ccc2c(c1)C(=O)N([C@H](C)CO)C[C@H](C)[C@@H](CN(C)C(=O)Nc1c(C)noc1C)OCCCC[C@@H](C)O2	inactive: 0.998
C[C@H](CO)N1C[C@H](C)[C@@H](CN(C)Cc2ccncc2)Oc2ccc(NC(=O)Nc3cccc4ccccc34)cc2C1=O	inactive: 0.987
Cc1noc(C)c1NC(=O)Nc1cccc2c1O[C@@H](CN(C)C(=O)Nc1cccc3ccccc13)[C@@H](C)CN([C@H](C)CO)C2=O	inactive: 0.985
O=C1N(Cc2ccccc2)Cc2ccccc2C[C@@]12N=C(c1ccc(OCCCO)cc1)O[C@H]2c1ccccc1	inactive: 0.994
CC(C)NC(=O)N(C)C[C@H]1Oc2ccc(NS(=O)(=O)c3cn(C)cn3)cc2C(=O)N([C@H](C)CO)C[C@H]1C	inactive: 1.02
CC(C)NC(=O)Nc1ccc2c(c1)C(=O)N([C@@H](C)CO)C[C@@H](C)[C@@H](CN(C)S(=O)(=O)c1cn(C)cn1)O2	inactive: 0.968
COc1cccc(S(=O)(=O)N(C)C[C@@H]2Oc3ncc(-c4cccc(F)c4)cc3C(=O)N([C@H](C)CO)C[C@@H]2C)c1	inactive: 1.01
NCC[C@H]1CC[C@H](NC(=O)Nc2ccc(F)cc2)[C@H](CO)O1	inactive: 1.01
CO[C@@H]1CN(C)C(=O)c2ccc(NC(=O)c3ccc(F)cc3)cc2OC[C@@H](C)N(C(=O)CN(C)C)C[C@H]1C	inactive: 0.985
CS(=O)(=O)N1CCOC[C@]2(CN(c3ncccn3)CCO2)C1	inactive: 1.03
Cc1noc(C)c1NC(=O)Nc1ccc2c(c1)C(=O)N([C@H](C)CO)C[C@@H](C)[C@H](CN(C)C(=O)Nc1ccc(C(F)(F)F)cc1)OCCCC[C@H](C)O2	inactive: 1.04
Cc1noc(C)c1S(=O)(=O)Nc1ccc2c(c1)CC(=O)N([C@H](C)CO)C[C@@H](C)[C@H](CN(C)S(=O)(=O)c1cccs1)O2	inactive: 1.01
CN1C(=O)c2cc(NC(=O)c3cccs3)ccc2OC[C@H]2O[C@@H](CC(=O)NCCN3CCCCC3)CC[C@@H]21	inactive: 1.01
C[C@@H]1CN([C@H](C)CO)C(=O)c2cc(NC(=O)Cn3cnnn3)ccc2O[C@H]1CN(C)Cc1ccncc1	inactive: 0.871
O=C(O)CN(CCc1ccccc1)CC(=O)O	inactive: 1
CN(C)CCCNC(=O)C[C@@H]1CC[C@@H]2[C@H](COC[C@H](O)CN2S(=O)(=O)c2ccccc2)O1	inactive: 1.02
CSC[C@H](N)C(=O)O	inactive: 0.9
C[C@@H]1CN([C@@H](C)CO)C(=O)c2cccc(NC(=O)Nc3cccc4ccccc34)c2O[C@H]1CN(C)C(=O)Nc1cccc2ccccc12	inactive: 1.01
C[C@@H]1CN([C@@H](C)CO)C(=O)Cc2cc(NC(=O)CCN3CCOCC3)ccc2O[C@@H]1CN(C)Cc1ccc(C(=O)Nc2ccccc2N)cc1	inactive: 0.989
CCn1c2c(c3cc(C4CCCCC4)ccc31)CCCC2=O	inactive: 1.03

SMILES	relative growth
Cn1cnc(S(=O)(=O)N2C[C@@H](O)COC[C@H]3O[C@@H](CC(=O)NCc4cc(F)cc(F)c4)CC[C@@H]32)c1	inactive: 0.977
COc1ccc(NC(=O)N(C)C[C@@H]2Oc3ccc(NC(=O)CCN4CCOCC4)cc3CC(=O)N([C@@H](C)CO)C[C@H]2C)cc1	inactive: 0.989
C[C@@H]1CN([C@@H](C)CO)C(=O)c2c(c3ccccc3n2C)-c2ccccc2CO[C@H]1CN(C)S(=O)(=O)c1cn(C)cn1	inactive: 0.995
C[C@@H]1CN([C@H](C)CO)C(=O)c2cc(NC(=O)C3CC3)ccc2O[C@@H]1CN(C)S(=O)(=O)c1cccs1	inactive: 0.996
COc1ccc(NC(=O)N(C)C[C@H]2Oc3ccc(NS(C)(=O)=O)cc3CC(=O)N([C@@H](C)CO)C[C@H]2C)cc1	inactive: 1
O=C(C[C@@H]1C=C[C@@H](NS(=O)(=O)c2ccc(F)cc2)[C@@H](CO)O1)N1CCC(Cc2ccccc2)CC1	inactive: 1.01
C[C@H]1CN([C@@H](C)CO)C(=O)Cc2cc(NS(=O)(=O)c3cccs3)ccc2O[C@@H]1CN(C)Cc1ccc(-c2ccccc2)cc1	inactive: 1.05
C[C@@H]1CCCCO[C@@H](CN(C)C(=O)Nc2ccc(C(F)(F)F)cc2)[C@H](C)CN([C@H](C)CO)C(=O)c2cc(N(C)C)ccc2O1	inactive: 0.952
C[C@H](CO)N1C[C@H](C)[C@H](CN(C)S(=O)(=O)c2ccc(Cl)cc2)OCc2ccccc2-c2c(n(C)c3ccccc23)C1=O	inactive: 1.01
CN1C(=O)c2cc(NC(=O)C3CCOCC3)ccc2OC[C@@H]2O[C@@H](CC(=O)NCc3ccc4c(c3)OCO4)CC[C@@H]21	inactive: 0.99
Cc1noc(C)c1S(=O)(=O)Nc1ccc2c(c1)C(=O)N([C@H](C)CO)C[C@@H](C)[C@H](CN(C)CC1CCCCC1)OCCCC[C@H](C)O2	inactive: 0.903
CC(C)/C=C1\CC/C(=C\c2ccc(C(F)(F)F)cc2)C1=O	inactive: 1.02
COc1ccc(NC(=O)Nc2ccc3c(c2)C(=O)N([C@@H](C)CO)C[C@H](C)[C@H](CN(C)C(=O)Nc2ccc4c(c2)OCO4)OCCCC[C@H](C)O3)cc1	inactive: 1
Fc1cncnc1	inactive: 1
CC(=O)O[C@H]1C=C[C@@H](O)C1	inactive: 0.991
COc1ccc(S(=O)(=O)Nc2ccc3c(c2)C(=O)N([C@H](C)CO)C[C@@H](C)[C@@H](CN(C)Cc2ccccc2)OCCCC[C@H](C)O3)cc1	inactive: 1.01
Cc1noc(C)c1NC(=O)N[C@@H]1C=C[C@H](CC(=O)NCCCN(C)C)O[C@@H]1CO	inactive: 0.995
C[C@H]1CN([C@@H](C)CO)S(=O)(=O)c2ccc(-c3ccc(C(=O)N(C)C)cc3)cc2O[C@@H]1CN(C)C(=O)C1CCC1	inactive: 1
O=C(NCC(F)(F)F)[C@@H]1[C@@H](CO)[C@@H]2Cn3c(cccc3=O)[C@H]1N2C(=O)C1CCC1	inactive: 0.975
CCNC(=S)N1CCCC[C@@H]1CO	inactive: 0.986
CCCNC(=O)Nc1ccc2c(c1)OC[C@@H](C)N(Cc1ccc(-c3ccccn3)cc1)C[C@@H](C)[C@@H](OC)CN(C)C2=O	inactive: 1.01

SMILES	relative growth
C[C@@H]1CN([C@@H](C)CO)C(=O)c2cccc(NC(=O)Nc3ccc4c(c3)OCO4)c2O[C@@H]1CN(C)Cc1ccc(C(=O)Nc2ccccc2N)cc1	inactive: 1
C[C@@H]1CN([C@@H](C)CO)C(=O)c2cc(NS(=O)(=O)c3ccc(Cl)cc3)ccc2O[C@@H](C)CCCCO[C@H]1CN(C)Cc1ccncc1	inactive: 1.01
CCCCOC(=O)c1ccc(N)cc1	inactive: 1.01
C[C@@H]1CN([C@H](C)CO)C(=O)Cc2cc(NC(=O)Nc3ccc(C(F)(F)F)cc3)ccc2O[C@@H]1CN(C)C(=O)Nc1cccc2ccccc12	inactive: 1
CN1C(=O)c2cc(NC(=O)C3CCC3)ccc2OC[C@@H]2O[C@@H](CC(=O)NCCc3ccncc3)CC[C@@H]21	inactive: 0.997
C[C@@H]1CN([C@@H](C)CO)C(=O)Cc2cc(NC(=O)Nc3ccc4c(c3)OCO4)ccc2O[C@H]1CN(C)C(=O)Nc1ccc(C(F)(F)F)cc1	inactive: 0.974
CCS(=O)(=O)N1C[C@]2(CN(C2)C(=O)c2ccc3c(c2)OCO3)c2c(n(c3cc(ccc23)OC)C)[C@H]1CO	inactive: 1.01
O=C(NC[C@@H](O)CO)[C@]1(CCS(=O)(=O)c2ccccc2)N=C(c2ccc(OCCCO)cc2)O[C@@H]1c1ccccc1	inactive: 1.02
C[C@H](CO)N1C[C@H](C)[C@H](CN(C)Cc2ccc(C(=O)Nc3ccccc3N)cc2)Oc2ccc(NC(=O)Nc3ccc(F)cc3)cc2C1=O	inactive: 0.997
COc1ccc(S(=O)(=O)Nc2cccc3c2O[C@@H](CN(C)Cc2ccc(Cl)c(Cl)c2)[C@H](C)CN([C@@H](C)CO)C3=O)cc1	inactive: 0.993
C[C@H]1CN([C@@H](C)CO)C(=O)Cc2cc(NC(=O)CCC(F)(F)F)ccc2O[C@H]1CN(C)S(=O)(=O)c1ccccc1	inactive: 0.991
COc1ccc([C@@H]([C@H](Cc2ccccc2)OC(C)=O)N2C[C@H]3C(=NO[C@@H]3[C@@H](OC(C)=O)c3ccccc3)[C@@H]2Cc2ccccc2)cc1	inactive: 1.01
O=C(Nc1ccc(C(=O)O)c(O)c1)c1ccccc1	inactive: 1.01
C[C@H]1CCCCO[C@H](CN(C)S(=O)(=O)c2ccc(Cl)cc2)[C@@H](C)CN([C@@H](C)CO)C(=O)c2cc(NS(=O)(=O)c3cccs3)ccc2O1	inactive: 1.06
C[C@H](CO)N1C[C@H](C)[C@H](CN(C)Cc2ccccc2)OCCCC[C@H](C)Oc2ccc(NC(=O)NC3CCCCC3)cc2C1=O	inactive: 0.993
C[C@H](CO)N1C[C@H](C)[C@@H](CN(C)C(=O)Nc2ccc(F)cc2)OCCCC[C@H](C)Oc2ccc(NC(=O)c3ccncc3)cc2C1=O	inactive: 0.979
COC(=O)c1nc[nH]c1C(=O)OC	inactive: 1.07
O=C1N[C@H](Cc2ccccc2)COC(=O)[C@@H](Cc2ccc(F)cc2)CCC=CC[C@@H]1CC(=O)N(CCO)Cc1ccccc1	inactive: 1.01
C[C@@H]1CCCCO[C@@H](CN(C)Cc2ccc3c(c2)OCO3)[C@@H](C)CN([C@H](C)CO)C(=O)c2cc(NC(=O)CCCCCC(=O)Nc3ccccc3N)ccc2O1	inactive: 0.98
